# Source: PMC12136788
# The list shows a part of the results.
# B1: chr2:69942770:69942871:+|3pUTR|ENSG00000059728|unk|FALSE|unique (ssRNA)
# RNA: GGGAGUUCUACAGUCCGACGAUCUGUUUCCAGAUGUUUCUUUAUGUAAAUAUGACGCCAAUGUAAAUCCUGUGUCAAGAUCAUAGAGAAUGGUGCUUUUUACUACAGUUAGCACAUGCAUUUUUAGAAACUACUACAUGUUUUCAACAGAGGAUUGAGCAUCA
# B2: ENSG00000125170:stop:overlap|stop_codon|ENSG00000125170|stop_codon|NA|stop_codon (ssRNA)
# RNA: GGGAGUUCUACAGUCCGACGAUCAGCGGCUGGAGAAGUAUCCAGAUGAGAAGUCGGUGUGCCUCCGGGGCUGCCCCAAGAGCUAGAGGCAGAGGAGUGGUACAAGACACUAUCUGUGGAGUGUCUGGGGUCCCGCCUCAACGACAACAGAGGAUUGAGCAUCA
# B3: ENSG00000070961:be:win_5451|3pUTR|ENSG00000070961|bound_else_gene|NA|bound_elsewhere_windowed (ssRNA)
# RNA: GGGAGUUCUACAGUCCGACGAUCUGAUAUUUUUGGUGGGUGGGGGAAAUCUUUUUCUCACCAUCAAAUCUUUGCAGUAAUCCUCUGCAGGUCUUAGAAACACAUUGGCUCUGUCAGCAUUUGUAAUUGUACAUUUAUUCAUCACAACAGAGGAUUGAGCAUCA
# B4: chr12:53210768:53210868:-|3pUTR|ENSG00000172819|msi1_unk|total|mutant (ssRNA)
# RNA: GGGAGUUCUACAGUCCGACGAUCAGGGGGGAUGCUGCUCCGCUGAUCCCGCCCUGACCCAGAGGAAGCCUCUAUUUAUUUAUCCGCUUUUGUUUACACCGUGGAAUUGACCCCUUCCUCCAGGGGUCUUGGGUGGGGGAGCCCCAACAGAGGAUUGAGCAUCA
# B5: chr20:34845330:34845491:-|CDS|ENSG00000131067|control|control|control (ssRNA)
# RNA: GGGAGUUCUACAGUCCGACGAUCUGAGUUCACAGAGGAAGAGAUUGAGUUCCUGGAAGCCAGGGGUCACCACGUGGAGAAAGUAGAUGUCUUAUCCUGGGUCCAUGGCAGCCGAAGGACCAACAACUUCAUCAUCGCUGUUAACAACAGAGGAUUGAGCAUCA
# B6: chr10:74118697:74119064:+|3pUTR|ENSG00000035403|msi1|total|mutant (ssRNA)
# RNA: GGGAGUUCUACAGUCCGACGAUCGAAGAAAUCACAGAAUCAUAUGAUUCUGCUUUUACCAUGCCCCUGAGCAAUGUCUGUGCCCGGGAAACUUCCCGUCCCAUAUCCUGCCUCAGCCCGCCAAGGCCGCCAUCCCAUGAACACCAACAGAGGAUUGAGCAUCA
# B7: ENSG00000140391:stop:overlap|stop_codon|ENSG00000140391|stop_codon|NA|stop_codon (ssRNA)
# RNA: GGGAGUUCUACAGUCCGACGAUCUGUGCAGAAGGAGUAGAGAUCCUGCUUACGAGCUCCUCAUCACUGGCGGAACCUAUGCAUAGUUGACAACUCAAGCCUGAGCUUUUUGGUCUUGUUCUGAUUUGGAAGGUGAAUUGAGCACAACAGAGGAUUGAGCAUCA
# B8: chr10:75150949:75151073:+|CDS|ENSG00000156671|unk|FALSE|unique (ssRNA)
# RNA: GGGAGUUCUACAGUCCGACGAUCUGUUCGAAGAUUGGACCCAGAAUACUGGAAGACUAUACUGAGUUGUAUAUAUGUUUUUAUAGUAUUUGGAUUUACAUCUUUCAUUAUGGUUAUAGUCCAUGAGCGAGUGCCUGACAUGCACAACAGAGGAUUGAGCAUCA
# B9: chr9:136116483:136116900:-|CDS|ENSG00000238227|control|control|control (ssRNA)
# RNA: GGGAGUUCUACAGUCCGACGAUCUUCGACGUGUACAUCAAGACGCGCUGGCUGUACGGCUUCAUCCGCUUCCUACUCUACUUUAGCUGCAGCCUGUUCACUGCGGCGCUCUGGGGUGCGCUGGCCGCCCUCUUCUGCCUACAGCAACAGAGGAUUGAGCAUCA
# B10: chr2:112646914:112647020:+|CDS|ENSG00000144136|unk|total|mutant (ssRNA)
# RNA: GGGAGUUCUACAGUCCGACGAUCGCUCAUCCUGGGCUUCAUUAUUGCAUUUGUCUUGGCAUUCUCCGUGGGAGCCAAUGAUGCCGCAAAUUCUUUUGGUACAGCUGUGGGCUCAGGUGCCGUGACCCUGAAGCAAGCCUGCAUCAACAGAGGAUUGAGCAUCA
# B11: chr3:98797769:98798349:-|3pUTR|ENSG00000057019|msi1|FALSE|unique (ssRNA)
# RNA: GGGAGUUCUACAGUCCGACGAUCUUGUUUUUGAUACCUCCUGGCAGCUUCCAUGUCACCACUUGUUCAUACCUGCCCAGAGCUAGUUUUAGACAUGGCAAAAUAGAAAUCAUCUGUAAUUUAUUAGCUAACAAUGUAAAACCACAACAGAGGAUUGAGCAUCA
# B12: chr12:13219749:13219850:+|3pUTR|ENSG00000134531|unk|total|mutant (ssRNA)
# RNA: GGGAGUUCUACAGUCCGACGAUCACAACAGUGGAUGGGGAGGAAGAACAGACUUUUGAGCUCUUCCCAAUACCGGAAUGUGUCCGUUCUAAAAAUUUUCUUAAGUUGUUUGCUUGGAACUCAGAGUAUAUUUUUCCAUACGAACAACAGAGGAUUGAGCAUCA
# B13: chr9:74692981:74693082:+|3pUTR|ENSG00000198963|unk|total|mutant (ssRNA)
# RNA: GGGAGUUCUACAGUCCGACGAUCUUUUAUAUUACUUCCGAAUGUAACCGGUUUUUGUCCUUAUUUUAUGUCCUGUAAAUUAUCCGUUCAAUACUGUCCGCAUUCCCGGAUAAUGCACACAUGAUUUCUGAAUGUUUUCUGUAACAACAGAGGAUUGAGCAUCA
# B14: ENSG00000136451:be:win_451|CDS|ENSG00000136451|bound_else_gene|NA|bound_elsewhere_windowed (ssRNA)
# RNA: GGGAGUUCUACAGUCCGACGAUCAGUGCCAGCACCACAGCUAUGCCAGUGACCCAGUCUGUCAAGAAACCCAGUAAGCCUGUCAAGAAGAACCAUGCUUGUGAGAUGUGUGGGAAGGCCUUCCGAGAUGUGUACCAUCUCAAUCAACAGAGGAUUGAGCAUCA
# B15: chr14:31448161:31448454:-|three_prime_utr|ENSG00000129480|control|control|control (ssRNA)
# RNA: GGGAGUUCUACAGUCCGACGAUCUGGAAAAGAAGAAGGGUUUGAACUUUACUCUCAAUUUGUGACUCUAUGUGAAAAAGAAGUAGCUGCUAAUAGCAAGUGUGCUGAAGCUAGGGUUGUAGUGGAACAUGGCACUUAUGGGAACAACAGAGGAUUGAGCAUCA
# B16: chr17:7656804:7656905:+|3pUTR|ENSG00000129244|unk|total|mutant (ssRNA)
# RNA: GGGAGUUCUACAGUCCGACGAUCGCAUGUGCCACCAUGCCCGGCUAAUUUCUUUCUUUCUUUUUUUUUUUUUUUGCAUUUUUCCGCCGAGAUGGGGGUUUCUCCUUGUUGGUCAGGCUGGUCUCGAACUCCCGACCUCAGGUGCAACAGAGGAUUGAGCAUCA
# B17: chr17:40866619:40867186:-|CDS|ENSG00000187242|control|control|control (ssRNA)
# RNA: GGGAGUUCUACAGUCCGACGAUCUGAUAGAUUAGCUUCCUACCUGGAUAAGGUGCGAGCUCUAGAAGAGGCUAAUACUGAGCUAGAAAAUAAAAUUCGAGAAUGGUAUGAAACACGAGGAACUGGGACUGCAGAUGCUUCACACAACAGAGGAUUGAGCAUCA
# B18: chr12:49127802:49127903:-|3pUTR|ENSG00000123416|msi1_unk|FALSE|overlapping (ssRNA)
# RNA: GGGAGUUCUACAGUCCGACGAUCAUGUCAUGCUCCCAGAAUUUCAGCUUCAGCUUAACUGACAGACGUUAAAGCUUUCUGGUUAGAUUGUUUUCACUUGGUGAUCAUGUCUUUUCCAUGUGUACCUGUAAUAUUUUUCCAUCACAACAGAGGAUUGAGCAUCA
# B19: chr10:91942452:91942553:+|CDS|ENSG00000095564|unk|FALSE|unique (ssRNA)
# RNA: GGGAGUUCUACAGUCCGACGAUCAGUUCUAUGGAAGAUUCACCUACUACAGAGCGAUUGAAUUUUGACAGAUUUGAUAUAUGUAGAUUGUUACAACAUGGUGCAUCACUCCUGGGAUCUGCUGGUGCCGAAUUUGAAGUCCAACAACAGAGGAUUGAGCAUCA
# B20: ENSG00000166402:stop:overlap|stop_codon|ENSG00000166402|stop_codon|NA|stop_codon (ssRNA)
# RNA: GGGAGUUCUACAGUCCGACGAUCGUGCACUGCAGGCCUUUGCCAUUGCCCUGUCCAGCUUCGACAGCAAGCUGGCGUGCGAGUAGAGGCCUCUUCGUGCCCUUUGGGGUUGCCCAGCCUGGAGCGGAGCUUGCCUGCCUGCCUCAACAGAGGAUUGAGCAUCA
# B21: ENSG00000107863:be:win_401|CDS|ENSG00000107863|bound_else_gene|NA|bound_elsewhere_windowed (ssRNA)
# RNA: GGGAGUUCUACAGUCCGACGAUCGCAAAACCUAUUCCCAAGUAAUUGCUUUAAUUCAAAACAGUGAUACAACAUUGGAACUUAGUGUUAUGCCAAAAGAUGAAGACAUUCUCCAAGUGCUACAGUUUACAAAGGAUGUCACAGCAACAGAGGAUUGAGCAUCA
# B22: chr14:102729990:102730091:+|3pUTR|ENSG00000089902|msi1|total|mutant (ssRNA)
# RNA: GGGAGUUCUACAGUCCGACGAUCUGCGAUGCUCUUUCUGCCAGUCCCUGAAUCUCUGCAGCUUCUCUUACCUGUCUUACCUGCCGUAAAGCACAAUUGCAGUGGCGUCGCAUUCAGAAGAAGGGAAGGUCAGCAGAGGCUAUGCAACAGAGGAUUGAGCAUCA
# Biological target: MSI1 full-length (mouse, UniProt Q61474 1-362)
# Chain of UniProt Q61474 (Q61474 whole entry): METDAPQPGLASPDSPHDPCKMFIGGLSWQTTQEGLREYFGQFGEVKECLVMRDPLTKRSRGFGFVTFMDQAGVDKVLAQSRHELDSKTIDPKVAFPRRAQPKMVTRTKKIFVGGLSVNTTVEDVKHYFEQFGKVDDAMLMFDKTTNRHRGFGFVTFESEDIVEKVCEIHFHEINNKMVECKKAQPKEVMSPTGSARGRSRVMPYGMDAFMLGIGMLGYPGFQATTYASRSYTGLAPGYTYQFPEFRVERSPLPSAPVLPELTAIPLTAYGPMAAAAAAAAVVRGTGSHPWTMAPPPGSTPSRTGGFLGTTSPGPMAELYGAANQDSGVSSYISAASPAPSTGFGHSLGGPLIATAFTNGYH
# Experiment: nsRBNS (natural sequence RNA bind-n-seq); RBNS binding buffer (assumed for nsRBNS): 25 mM Tris pH 7.5, 150 mM KCl, 3 mM MgCl2, 0.01% Triton X-100, 500 ug/ml BSA, 20 U/ml SUPERase-In, 4 C; UNK is unkempt and MSI1 is Musashi-1; names of the RNAs are library labels; protein concentration not given here; high values mean tight binding
row,Binder,binding signal [enrichment R]
1,B1,0.691
2,B2,5.74
3,B3,0.741
4,B4,0.626
5,B5,0.503
6,B6,0.586
7,B7,1.42
8,B8,0.54
9,B9,0.554
10,B10,0.38
11,B11,10.6
12,B12,0.424
13,B13,0.521
14,B14,0.391
15,B15,0.653
16,B16,1.66
17,B17,0.887
18,B18,2
19,B19,0.338
20,B20,0.817
21,B21,0.42
22,B22,0.334
